Measurements taken from ChEMBL document CHEMBL4888484, “Replenishing the malaria drug discovery pipeline: Screening and hit evaluation of the MMV Hit Generation Library 1 (HGL1) against asexual blood stage Plasmodium falciparum ,using a nano luciferase reporter read-out” (2022).
The whole screen tested about 150,000 compounds, of which about 540 (0.36%) showed an effect of 50% or more. The list shows a part of the results.

test system: Plasmodium falciparum; assay: Primary screen in NF54 nanoGlo assay, in single point, at 2uM, 72h; a lower Z score goes with more inhibition; format: functional, Erythrocyte; conditions: timepoint 72 hour

SMILES	% Inhibition [%]	Z score
O=C(Cn1nc(-c2ccco2)n(C2CC2)c1=O)N1CCc2ccccc21	-11	1.25
C[C@@](CO)(NC(=O)NCCc1ccc2c(c1)CCO2)C1CC1	-7	0.57
Cc1c([C@@H]2CC(=O)Nc3c2c(=O)[nH]n3C2CCCC2)cnn1C	9	-1.47
CCOc1c(Cl)cccc1CC(=O)NCc1cc(C)no1	-1	0.23
CC(C)c1nn(C)c(Cl)c1CNc1cccc(F)c1F	-4	0.6
COCCc1nc(C2(Cn3ccnc3)CC2)n(Cc2cccc(Cl)c2)n1	-8	1.69
Cc1cc(Br)cn(Cc2nnc(C3CC3)n2C)c1=O	-13	2.5
Cc1c(O)c2c(=O)n(C)c(=O)n(C)c2[nH]c1=O	-15	1.89
Cc1cc(F)ccc1OCc1noc(-c2cccc3ccccc23)n1	3	-0.5
Cc1ccc(NC(=O)C[C@H]2Cc3c(n(Cc4ccccc4)c(=O)[nH]c3=O)NC2=O)cc1C	30	-3.4
COc1ccc(NC(=O)c2nnn3c2CO[C@H](c2ccccc2)C3)cc1	-9	1.03
O=C([C@H](NCc1ccccc1CN1CCOCC1)c1ccccc1)N1CCCC1	-6	0.74
CCC(=O)N1CCc2ccc(OCc3nc(C(=O)NCCN(C)C)co3)cc2[C@@H]1c1cccc(C)c1	-8	0.84
O=C(C1C2CCCC21)N1CCOCC12CCCC2 (centres undefined)	-1	0.12
CNc1cc(-c2cccc(C(=O)N3C[C@@H](C)O[C@@H](C)C3)c2)nc(N)n1	-1	0.16
Cc1nn(C(C)C)c(C)c1CNC(=O)N(C)C[C@H]1COCCO1	-7	1.13
N/C(CC(=O)Nc1ccccc1F)=N\O	-5	0.6
CN(Cc1nnc2c(=O)n(C)ccn12)c1ccnc(C(C)(C)C)n1	13	-1.51
CCC(CC)CN1C[C@]23C=C[C@H](O2)C(C(=O)N2CCNC(=O)C2)C3C1=O (some centres undefined)	-20	2.6
CNC(=O)c1noc(CN(C)CC2(C)COC2)n1	1	-0.11
CCCOCCCNC(=O)c1cncn1-c1cccc(-c2ccc(OC)c(OC)c2)c1	-9	0.94

SMILES	% Inhibition [%]	Z score
COc1ccc(-c2nn(-c3ccccc3)cc2CN2CCO[C@@H](C)C2)cc1	-18	3.35
COCCC1(c2noc(CCc3cncc(C)c3)n2)CCC1	-9	1.16
CCc1ccc(CNC(=O)c2c(C)oc3nc(C)nc(N4CCCC4)c23)cc1	-6	1.05
CN1C[C@]2(CCOC2)N(C2CCN(C(=O)c3ccc(F)cc3)CC2)C1=O	-12	1.66
Cc1ccccc1CC1(N[C@@H](C)CNS(=O)(=O)C2CC2)CC1	-17	1.86
CO[C@H]1[C@H](NC(=O)C(C)C)c2ccccc2C12CCN(CC(C)C)CC2	2	-0.36
CN(C(=O)NCc1cscn1)C1CCCCCC1	-4	0.45
CCc1nnc(CNc2ccc(F)c(S(=O)(=O)NC)c2)s1	-2	0.19
CCOC1CC(CCNC(=O)N2CCO[C@H]3CCC[C@H]32)C1 (some centres undefined)	4	-0.51
O=C1CCC(c2ccccc2)(c2ccccc2)CN1C[C@@H]1CCCN1	-5	0.64
CN1C[C@@H](Nc2nc3ccccc3o2)CCC1=O	-17	1.98
Cc1ccccc1Cn1nnc2cc(C(=O)N3CCN(c4ccccn4)CC3)ccc21	-8	0.83
C#CCN(C)[C@H]1CCc2c(c(C(=O)O)nn2CC=C)C1	-7	0.85
CC(=O)N1CCc2cc(S(=O)(=O)N(C)c3cnccn3)ccc21	-6	0.52
C[C@H](OC(=O)Cc1ccc(-c2ccccc2)cc1)C(=O)N1CCCc2ccccc21	-6	0.87
CN(CC1CCC1)C(=O)NCCCN1CCC[C@H]1C(N)=O	-6	0.9
COCc1ccccc1CNC[C@@H](O)c1cc2ccccc2o1	-1	0.08
CCc1n[nH]c(NCc2ccc(OC)cc2)n1	18	-2.12
CCCN(C)C[C@H]1CCN(c2ccc3[nH]c(=O)ccc3n2)C1	-4	0.59
Cc1c(C(=O)NCc2ccccc2)nnn1-c1nccs1	-13	2.47
O=C(NCc1cc(F)cc(F)c1)c1csc(C(=O)NC2CCCC2)n1	27	-3.95
